The text below walks through data of patent US20200164029A1 (ACCELERON PHARMA, published 2020).

Assay [1] concerns the target T1, human BMP-9 (human, UniProt Q9UK05 320-429).
T1 construct: also called hBMP-9
T1 sequence (looked up): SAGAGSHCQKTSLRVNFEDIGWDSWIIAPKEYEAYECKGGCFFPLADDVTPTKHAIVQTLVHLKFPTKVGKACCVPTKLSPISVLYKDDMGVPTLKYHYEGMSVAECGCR
Put plainly: SPR screen at low ligand concentration.

Assay [2] has as its target T2, human BMP-10 (human, UniProt O95393 317-424).
T2 construct: also called hBMP-10
T2 sequence (looked up): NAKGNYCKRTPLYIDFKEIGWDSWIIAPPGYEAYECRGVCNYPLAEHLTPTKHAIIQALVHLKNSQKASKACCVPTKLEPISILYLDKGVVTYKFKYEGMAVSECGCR
Put plainly: SPR screen at low ligand concentration.

Assay [3] has as its target T3, human BMP-2 (human, UniProt P12643 283-396).
T3 construct: also called hBMP-2
T3 sequence (looked up): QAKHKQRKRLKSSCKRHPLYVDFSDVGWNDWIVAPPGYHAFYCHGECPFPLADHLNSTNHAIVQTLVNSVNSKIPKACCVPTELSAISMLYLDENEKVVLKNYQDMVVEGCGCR
The assay is described as follows: SPR (Biacore), captured construct, soluble ligand. On the technique in general: Surface plasmon resonance follows binding to a sensor surface in real time, without labels.

In assay [4] the target is T4, hBMP-2/7 (human, UniProt P12643 283-396; P18075 293-431).
T4 construct: read as the BMP-2/BMP-7 heterodimer
T4 sequence (looked up) 1: T3 sequence (looked up)
T4 sequence (looked up) 2: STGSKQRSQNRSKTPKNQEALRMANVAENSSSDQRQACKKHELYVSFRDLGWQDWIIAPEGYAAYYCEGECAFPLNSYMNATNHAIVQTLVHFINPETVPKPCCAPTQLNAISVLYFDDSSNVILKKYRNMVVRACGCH
Put plainly: SPR (Biacore), captured construct, soluble ligand.

For assay [5], the target named is T5, human BMP-7 (human, UniProt P18075 293-431).
T5 construct: also called hBMP-7
T5 sequence (looked up): T4 sequence (looked up) 2
Put plainly: SPR (Biacore), captured construct, soluble ligand.

Assay [6] deals with T6, human TGF-β1 (human, UniProt P01137 fragment).
T6 construct: also called hTGF-β1
Put plainly: SPR (Biacore), captured construct, soluble ligand.

The target of assay [7] is T7, human TGF-β2 (human, UniProt P61812 303-414).
T7 construct: also called hTGF-β2
T7 sequence (looked up): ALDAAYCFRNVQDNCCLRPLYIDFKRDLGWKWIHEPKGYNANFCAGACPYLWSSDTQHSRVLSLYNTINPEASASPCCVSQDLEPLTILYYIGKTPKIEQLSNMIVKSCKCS
The assay is described as follows: SPR (Biacore), captured construct, soluble ligand.

Assay [8] addresses T8, human TGF-β3 (human, UniProt P10600 301-412).
T8 construct: also called hTGF-β3
T8 sequence (looked up): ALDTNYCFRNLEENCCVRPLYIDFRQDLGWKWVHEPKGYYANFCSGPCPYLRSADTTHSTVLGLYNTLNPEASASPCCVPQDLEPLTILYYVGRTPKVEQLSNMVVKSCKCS
Put plainly: SPR (Biacore), captured construct, soluble ligand.

The target in assay [9] is T9, human activin A (human, UniProt P08476 311-426).
T9 construct: also called hActivin A
T9 sequence (looked up): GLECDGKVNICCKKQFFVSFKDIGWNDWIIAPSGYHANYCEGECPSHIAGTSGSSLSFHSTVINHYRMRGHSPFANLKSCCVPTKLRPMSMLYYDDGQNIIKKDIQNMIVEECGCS
Put plainly: SPR (Biacore), captured construct, soluble ligand.

Assay [10] addresses T2, human BMP-10. Put plainly: SPR, captured hENG(26-586)-hFc, soluble BMP-10 0.01-1.25 nM, non-linear regression (FIG. 19). The text has this: (§1) Thus, selective high-affinity binding of BMP-9 and BMP-10 is a previously unrecognized property of the ENG extracellular domain that is generalizable across species.
The target in assay [11] is T1, human BMP-9. Put plainly: SPR, captured hENG(26-586)-hFc, soluble BMP-9 0.01-0.625 nM, non-linear regression (FIG. 18).
Excerpt: as §1

For a further assay, the target named is T10, VEGF (human, UniProt P15692-4 27-191, limits assumed).
T10 construct: also called vascular endothelial growth factor
T10 sequence (looked up): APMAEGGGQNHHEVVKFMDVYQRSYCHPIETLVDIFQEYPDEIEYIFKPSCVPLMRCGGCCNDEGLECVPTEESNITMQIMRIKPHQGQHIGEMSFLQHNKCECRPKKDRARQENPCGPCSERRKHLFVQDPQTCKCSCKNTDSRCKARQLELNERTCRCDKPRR
The assay is described as follows: SPR.

A further assay deals with T11, FGF-2 (human, UniProt P09038 fragment, limits assumed).
T11 construct: also called basic fibroblast growth factor
The assay is described as follows: SPR.

Assay [12] addresses T3, human BMP-2. The assay is described as follows: SPR ligand panel.
The target of assay [13] is T4, hBMP-2/7. The assay is described as follows: SPR ligand panel.
The target of assay [14] is T5, human BMP-7. The assay is described as follows: SPR ligand panel.
In assay [15] the target is T6, human TGF-β1. Put plainly: SPR ligand panel.
The target in assay [16] is T7, human TGF-β2. Put plainly: SPR ligand panel.
For assay [17], the target named is T8, human TGF-β3. The assay is described as follows: SPR ligand panel.
Assay [18] addresses T9, human activin A. The assay is described as follows: SPR ligand panel.
Assay [19] has as its target T1, human BMP-9. Put plainly: cell-based or functional assay.
Assay [20] has as its target T2, human BMP-10. Put plainly: cell-based or functional assay.
Assay [21] has as its target T1, human BMP-9. The assay is described as follows: cell-based or functional assay. This is another data set of the same source.
The target in assay [22] is T2, human BMP-10. Put plainly: cell-based or functional assay. The source holds these as a separate data set.
Assay [23] deals with T2, human BMP-10. Put plainly: SPR kinetics, CHO-cell-derived protein.
Assay [24] concerns the target T1, human BMP-9. The assay is described as follows: SPR kinetics, captured CHO-cell-derived protein. The procedure: BMP-9 binding to captured CHO-cell-derived proteins was assessed at ligand concentrations of 0.0195-0.625 nM in two-fold increments. RU, response units.
Assay [25] has as its target T1, human BMP-9. The assay is described as follows: summary table of CHO-cell-derived fusion proteins; method not given.
Assay [26] addresses T2, human BMP-10. The assay is described as above.

T6 sequence (P01137 279-390 limits assumed): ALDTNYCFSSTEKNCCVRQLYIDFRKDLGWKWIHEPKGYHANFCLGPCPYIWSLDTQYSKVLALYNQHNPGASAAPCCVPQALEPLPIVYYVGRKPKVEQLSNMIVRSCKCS
FGF-2, sequence (P09038 143-288 limits assumed): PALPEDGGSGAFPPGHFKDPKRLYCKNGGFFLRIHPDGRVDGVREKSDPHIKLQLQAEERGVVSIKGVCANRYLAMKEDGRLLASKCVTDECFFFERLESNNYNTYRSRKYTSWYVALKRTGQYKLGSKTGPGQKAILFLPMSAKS

B1: hENG(26-586)-hFc (Fc fusion)
chain: GAETVHCDLQPVGPERDEVTYTTSQVSKGCVAQAPNAILEVHVLFLEFPTGPSQLELTLQASKQNGTWPREVLLVLSVNSSVFLHLQALGIPLHLAYNSSLVTFQEPPGVNTTELPSFPKTQILEWAAERGPITSAAELNDPQSILLRLGQAQGSLSFCMLEASQDMGRTLEWRPRTPALVRGCHLEGVAGHKEAHILRVLPGHSAGPRTVTVKVELSCAPGDLDAVLILQGPPYVSWLIDANHNMQIWTTGEYSFKIFPEKNIRGFKLPDTPQGLLGEARMLNASIVASFVELPLASIVSLHASSCGGRLQTSPAPIQTTPPKDTCSPELLMSLIQTKCADDAMTLVLKKELVAHLKCTITGLTFWDPSCEAEDRGDKFVLRSAYSSCGMQVSASMISNEAVVNILSSSSPQRKKVHCLNMDSLSFQLGLYLSPHFLQASNTIEPGQQSFVQVRVSPSVSEFLLQLDSCHLDLGPEGGTVELIQGRAAKGNCVSLLSPSPEGDPRFSFLLHFYTVPIPKTGTLSCTVALRPKTGSQDQEVHRTVFMRLNIISPDLSGCTSKGTGGG[left out - human IgG1 Fc]
notes: also called full-length construct; soluble endoglin (ENG) fusion protein
The term Kd denotes the concentration at which binding is half-saturated. Read a low Kd as a tighter complex. For the molecule B1, the Kd with human BMP-9 [1] was < 1000 pM; in the assay with human BMP-10 [2] it was < 1000 pM; with human BMP-10 [10], 400 pM; with human BMP-9 [11], 29 pM. The binding result with human BMP-2 [3], with hBMP-2/7 [4], in the assay with human BMP-7 [5], with human TGF-β1 [6], with human TGF-β2 [7] and with human TGF-β3 [8] was “no binding (tested: 100 nM)” throughout. Besides, the binding result in the assay with human activin A [9] is on record as “no binding (tested: 100 nM)”.

B2: hENG(26-346)-hFc (truncated Fc) (Fc fusion)
chain: ETVHCDLQPVGPERDEVTYTTSQVSKGCVAQAPNAILEVHVLFLEFPTGPSQLELTLQASKQNGTWPREVLLVLSVNSSVFLHLQALGIPLHLAYNSSLVTFQEPPGVNTTELPSFPKTQILEWAAERGPITSAAELNDPQSILLRLGQAQGSLSFCMLEASQDMGRTLEWRPRTPALVRGCHLEGVAGHKEAHILRVLPGHSAGPRTVTVKVELSCAPGDLDAVLILQGPPYVSWLIDANHNMQIWTTGEYSFKIFPEKNIRGFKLPDTPQGLLGEARMLNASIVASFVELPLASIVSLHASSCGGRLQTSPAPIQTTPPTG[left out - human IgG1 Fc and a few adjoining residues]
What is called koff is a measure of how fast the partners let go of each other. With B2, the binding result is recorded as “no binding” with VEGF; “no binding” in the assay with FGF-2; “no binding (tested: 100 nM)” with human BMP-2 [12]; “no binding (tested: 100 nM)” with hBMP-2/7 [13]; “no binding (tested: 100 nM)” with human BMP-7 [14]; “no binding (tested: 100 nM)” with human TGF-β1 [15]. In addition, the binding result with human TGF-β2 [16] is “no binding (tested: 100 nM)”; with human TGF-β3 [17], “no binding (tested: 50 nM)”; in the assay with human activin A [18], “no binding (tested: 100 nM)”. In addition, the “IC50 (nM), BRE-luciferase reporter-gene assay in A204 cells” value was 0.19 nM with human BMP-9 [19] and 4.6 nM in the assay with human BMP-10 [20]. Moreover, the “Potency (cell-based IC50)” value in the assay with human BMP-9 [21] is 190 pM; in the assay with human BMP-10 [22], 4600 pM. The Kd came out at 140 pM in the assay with human BMP-10 [23], 4.3 pM with human BMP-9 [24], 4.3 pM in the assay with human BMP-9 [25] and 140 pM in the assay with human BMP-10 [26]. Also, the off-rate (koff) was found to be 0.0028 s⁻¹ in the assay with human BMP-10 [23], 0.00024 s⁻¹ with human BMP-9 [24], 0.00024 s⁻¹ in the assay with human BMP-9 [25] and 0.0028 s⁻¹ with human BMP-10 [26].
